# Some of the results follow.
# B1: Als1 (Candida albicans), P46590 (protein)
# chain: KTITGVFDSFNSLTWSNAANYAFKGPGYPTWNAVLGWSLDGTSANPGDTFTLNMPCVFKYTTSQTSVDLTADGVKYATCQFYSGEEFTTFSTLTCTVNDALKSSIKAFGTVTLPIAFNVGGTGSSTDLEDSKCFTAGTNTVTFNDGDKDISIDVEFEKSTVDPSGYLYASRVMPSLNKVTTLFVAPQCENGYTSGTMGFSSSNGDVAIDCSNIHIGITKGLNDWNYPVSSESFSYTKTCTSNGIQIKYQNVPAGYRPFIDAYISATDVNQYTLAYTNDYTCAGSRLQSKPFTLRWTGYKNSDAGSNGIVIVATTRTVTDSTTAVTTLPFNPSVDKTKTIEILQPIPTTTITTSYVGVTTSYLTKTAPIGETATVIVDVPYHTTTTVTSEWTGTITTTTTRTNPTDSIDTVVVQVP
# What was measured:
# Assay in all cases: glycan array binding signal (z-score within array); higher = stronger binding
# Conditions in all cases: glycan notation: IUPAC condensed, linker removed
# [1] = target: Gal(b1-4)GlcNAc(b1-2)[Gal(b1-4)GlcNAc(b1-6)]Man(a1-6)[Gal(b1-4)GlcNAc(b1-2)Man(a1-3)]Man(b1-4)GlcNAc(b1-4)[Fuc(a1-6)]GlcNAc
# Procedure, shortened: (§1)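 Glycan array data were curated from 3228 arrays in the Consortium for Functional Glycomics database and kept only where the protein sequence was available. Glycan names were converted to IUPAC-condensed notation, and columns mapping to the same glycan were averaged. The binding signal is a within-array Z-score, averaged across arrays of the same protein sequence at different concentrations or buffers and across linkers. Negative Z-scores can be read as non-binding.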
# [2] = target: Gal(b1-4)GlcNAc(b1-2)[Gal(b1-4)GlcNAc(b1-6)]Man(a1-6)[GlcNAc(b1-4)][Gal(b1-4)GlcNAc(b1-2)Man(a1-3)]Man(b1-4)GlcNAc(b1-4)GlcNAc
# Procedure, shortened: as §1
# [3] = target: Gal(b1-4)GlcNAc(b1-2)[Gal(b1-4)GlcNAc(b1-6)]Man(a1-6)[GlcNAc(b1-4)][Gal(b1-4)GlcNAc(b1-2)[Gal(b1-4)GlcNAc(b1-4)]Man(a1-3)]Man(b1-4)GlcNAc(b1-4)[Fuc(a1-6)]GlcNAc
# Procedure, shortened: as §1
# [4] = target: Gal(b1-4)GlcNAc(b1-3)Gal(b1-3)GalNAc
# Procedure, shortened: as §1
# [5] = target: Gal(b1-4)GlcNAc(b1-3)Gal(b1-3)GlcNAc
# Procedure, shortened: as §1
# [6] = target: Gal(b1-4)GlcNAc(b1-3)Gal(b1-4)Glc
# Procedure, shortened: as §1
# [7] = target: Gal(b1-4)GlcNAc(b1-3)Gal(b1-4)GlcNAc
# Procedure, shortened: as §1
# [8] = target: Gal(b1-4)GlcNAc(b1-3)Gal(b1-4)GlcNAc(b1-2)Man(a1-3)[Gal(b1-4)GlcNAc(b1-3)Gal(b1-4)GlcNAc(b1-2)Man(a1-6)]Man(b1-4)GlcNAc(b1-4)GlcNAc
# Procedure, shortened: as §1
# [9] = target: Gal(b1-4)GlcNAc(b1-3)Gal(b1-4)GlcNAc(b1-2)Man(a1-3)[Gal(b1-4)GlcNAc(b1-3)Gal(b1-4)GlcNAc(b1-2)Man(a1-6)]Man(b1-4)GlcNAc(b1-4)[Fuc(a1-6)]GlcNAc
# Procedure, shortened: as §1
# [10] = target: Gal(b1-4)GlcNAc(b1-3)Gal(b1-4)GlcNAc(b1-2)[Gal(b1-4)GlcNAc(b1-3)Gal(b1-4)GlcNAc(b1-6)]Man(a1-6)[Gal(b1-4)GlcNAc(b1-3)Gal(b1-4)GlcNAc(b1-2)Man(a1-3)]Man(b1-4)GlcNAc(b1-4)GlcNAc
# Procedure, shortened: as §1
# [11] = target: Gal(b1-4)GlcNAc(b1-3)Gal(b1-4)GlcNAc(b1-2)[Gal(b1-4)GlcNAc(b1-3)Gal(b1-4)GlcNAc(b1-6)]Man(a1-6)[Gal(b1-4)GlcNAc(b1-3)Gal(b1-4)GlcNAc(b1-2)Man(a1-3)]Man(b1-4)GlcNAc(b1-4)[Fuc(a1-6)]GlcNAc
# Procedure, shortened: as §1
# [12] = target: Gal(b1-4)GlcNAc(b1-3)Gal(b1-4)GlcNAc(b1-3)Gal(b1-4)GlcNAc
# Procedure, shortened: as §1
# [13] = target: Gal(b1-4)GlcNAc(b1-3)Gal(b1-4)GlcNAc(b1-3)Gal(b1-4)GlcNAc(b1-2)Man(a1-3)[Gal(b1-4)GlcNAc(b1-3)Gal(b1-4)GlcNAc(b1-3)Gal(b1-4)GlcNAc(b1-2)Man(a1-6)]Man(b1-4)GlcNAc(b1-4)GlcNAc
# Procedure, shortened: as §1
# [14] = target: Gal(b1-4)GlcNAc(b1-3)Gal(b1-4)GlcNAc(b1-3)Gal(b1-4)GlcNAc(b1-2)Man(a1-3)[Gal(b1-4)GlcNAc(b1-3)Gal(b1-4)GlcNAc(b1-3)Gal(b1-4)GlcNAc(b1-2)Man(a1-6)]Man(b1-4)GlcNAc(b1-4)[Fuc(a1-6)]GlcNAc
# Procedure, shortened: as §1
# [15] = target: Gal(b1-4)GlcNAc(b1-3)Gal(b1-4)GlcNAc(b1-3)Gal(b1-4)GlcNAc(b1-2)[Gal(b1-4)GlcNAc(b1-3)Gal(b1-4)GlcNAc(b1-3)Gal(b1-4)GlcNAc(b1-6)]Man(a1-6)[Gal(b1-4)GlcNAc(b1-3)Gal(b1-4)GlcNAc(b1-3)Gal(b1-4)GlcNAc(b1-2)Man(a1-3)]Man(b1-4)GlcNAc(b1-4)[Fuc(a1-6)]GlcNAc
# Procedure, shortened: as §1
# [16] = target: Gal(b1-4)GlcNAc(b1-3)Gal(b1-4)GlcNAc(b1-3)Gal(b1-4)GlcNAc(b1-3)Gal(b1-4)GlcNAc(b1-2)Man(a1-3)[Gal(b1-4)GlcNAc(b1-3)Gal(b1-4)GlcNAc(b1-3)Gal(b1-4)GlcNAc(b1-3)Gal(b1-4)GlcNAc(b1-2)Man(a1-6)]Man(b1-4)GlcNAc(b1-4)GlcNAc
# Procedure, shortened: as §1
# [17] = target: Gal(b1-4)GlcNAc(b1-3)Gal(b1-4)GlcNAc(b1-3)Gal(b1-4)GlcNAc(b1-3)Gal(b1-4)GlcNAc(b1-2)Man(a1-3)[Gal(b1-4)GlcNAc(b1-3)Gal(b1-4)GlcNAc(b1-3)Gal(b1-4)GlcNAc(b1-3)Gal(b1-4)GlcNAc(b1-2)Man(a1-6)]Man(b1-4)GlcNAc(b1-4)[Fuc(a1-6)]GlcNAc
# Procedure, shortened: as §1
# [18] = target: Gal(b1-4)GlcNAc(b1-3)Gal(b1-4)GlcNAc(b1-3)Gal(b1-4)GlcNAc(b1-3)Gal(b1-4)GlcNAc(b1-2)[Gal(b1-4)GlcNAc(b1-3)Gal(b1-4)GlcNAc(b1-3)Gal(b1-4)GlcNAc(b1-3)Gal(b1-4)GlcNAc(b1-6)]Man(a1-6)[Gal(b1-4)GlcNAc(b1-3)Gal(b1-4)GlcNAc(b1-3)Gal(b1-4)GlcNAc(b1-3)Gal(b1-4)GlcNAc(b1-2)Man(a1-3)]Man(b1-4)GlcNAc(b1-4)[Fuc(a1-6)]GlcNAc
# Procedure, shortened: as §1
# [19] = target: Gal(b1-4)GlcNAc(b1-3)Gal(b1-4)GlcNAc(b1-3)Gal(b1-4)GlcNAc(b1-3)Gal(b1-4)GlcNAc(b1-3)Gal(b1-4)GlcNAc(b1-2)Man(a1-3)[Gal(b1-4)GlcNAc(b1-3)Gal(b1-4)GlcNAc(b1-3)Gal(b1-4)GlcNAc(b1-3)Gal(b1-4)GlcNAc(b1-3)Gal(b1-4)GlcNAc(b1-2)Man(a1-6)]Man(b1-4)GlcNAc(b1-4)GlcNAc
# Procedure, shortened: as §1
# [20] = target: Gal(b1-4)GlcNAc(b1-3)Gal(b1-4)GlcNAc(b1-3)Gal(b1-4)GlcNAc(b1-3)Gal(b1-4)GlcNAc(b1-3)Gal(b1-4)GlcNAc(b1-2)Man(a1-3)[Gal(b1-4)GlcNAc(b1-3)Gal(b1-4)GlcNAc(b1-3)Gal(b1-4)GlcNAc(b1-3)Gal(b1-4)GlcNAc(b1-3)Gal(b1-4)GlcNAc(b1-2)Man(a1-6)]Man(b1-4)GlcNAc(b1-4)[Fuc(a1-6)]GlcNAc
# Procedure, shortened: as §1
# [21] = target: Gal(b1-4)GlcNAc(b1-3)Gal(b1-4)GlcNAc(b1-3)Gal(b1-4)GlcNAc(b1-3)Gal(b1-4)GlcNAc(b1-3)Gal(b1-4)GlcNAc(b1-2)[Gal(b1-4)GlcNAc(b1-3)Gal(b1-4)GlcNAc(b1-3)Gal(b1-4)GlcNAc(b1-3)Gal(b1-4)GlcNAc(b1-3)Gal(b1-4)GlcNAc(b1-6)]Man(a1-6)[Gal(b1-4)GlcNAc(b1-3)Gal(b1-4)GlcNAc(b1-3)Gal(b1-4)GlcNAc(b1-3)Gal(b1-4)GlcNAc(b1-3)Gal(b1-4)GlcNAc(b1-2)Man(a1-3)]Man(b1-4)GlcNAc(b1-4)[Fuc(a1-6)]GlcNAc
# Procedure, shortened: as §1
# [22] = target: Gal(b1-4)GlcNAc(b1-3)Gal(b1-4)GlcNAc(b1-3)Gal(b1-4)GlcNAc(b1-3)Gal(b1-4)GlcNAc(b1-3)Gal(b1-4)GlcNAc(b1-3)Gal(b1-4)GlcNAc(b1-2)Man(a1-3)[Gal(b1-4)GlcNAc(b1-3)Gal(b1-4)GlcNAc(b1-3)Gal(b1-4)GlcNAc(b1-3)Gal(b1-4)GlcNAc(b1-3)Gal(b1-4)GlcNAc(b1-3)Gal(b1-4)GlcNAc(b1-2)Man(a1-6)]Man(b1-4)GlcNAc(b1-4)GlcNAc
# Procedure, shortened: as §1
# [23] = target: Gal(b1-4)GlcNAc(b1-3)Gal(b1-4)GlcNAc(b1-3)GalNAc
# Procedure, shortened: as §1
# [24] = target: Gal(b1-4)GlcNAc(b1-3)Gal(b1-4)GlcNAc(b1-3)[Gal(b1-4)GlcNAc(b1-3)Gal(b1-4)GlcNAc(b1-6)]GalNAc
# Procedure, shortened: as §1
# [25] = target: Gal(b1-4)GlcNAc(b1-3)Gal(b1-4)GlcNAc(b1-6)[Gal(b1-3)]GalNAc
# Procedure, shortened: as §1
# [26] = target: Gal(b1-4)GlcNAc(b1-3)Gal(b1-4)[Fuc(a1-3)]GlcNAc(b1-3)Gal(b1-4)[Fuc(a1-3)]GlcNAc
# Procedure, shortened: as §1
# [27] = target: Gal(b1-4)GlcNAc(b1-3)GalNAc
# Procedure, shortened: as §1
# [28] = target: Gal(b1-4)GlcNAc(b1-3)[Fuc(a1-3)GlcNAc(b1-6)]Gal(b1-4)Glc
# Procedure, shortened: as §1
# [29] = target: Gal(b1-4)GlcNAc(b1-3)[Gal(b1-4)GlcNAc(b1-6)]Gal(b1-4)GlcNAc
# Procedure, shortened: as §1
# [30] = target: Gal(b1-4)GlcNAc(b1-3)[GlcNAc(b1-6)]Gal(b1-4)GlcNAc
# Procedure, shortened: as §1
# [31] = target: Gal(b1-4)GlcNAc(b1-6)Gal(b1-4)GlcNAc
# Procedure, shortened: as §1
# [32] = target: Gal(b1-4)GlcNAc(b1-6)GalNAc
# Procedure, shortened: as §1
# [33] = target: Gal(b1-4)GlcNAc(b1-6)[Gal(b1-3)]GalNAc
# Procedure, shortened: as §1
# [34] = target: Gal(b1-4)GlcNAc(b1-6)[Gal(b1-4)GlcNAc(b1-3)]GalNAc
# Procedure, shortened: as §1
# Gal(b1-4)GlcNAc6P = target: Gal(b1-4)GlcNAc6P
# Procedure, shortened: as §1
# Gal(b1-6)Gal = target: Gal(b1-6)Gal
# Procedure, shortened: as §1
# Gal3S(b1-3)GalNAc = target: Gal3S(b1-3)GalNAc
# Procedure, shortened: as §1
# Gal3S(b1-3)GlcNAc = target: Gal3S(b1-3)GlcNAc
# Procedure, shortened: as §1
binder,measurement,setting,value
B1,glycan array binding signal (z-score),[1],0.092
same,glycan array binding signal (z-score),[2],-0.477
same,glycan array binding signal (z-score),[3],-0.394
same,glycan array binding signal (z-score),[4],-0.31
same,glycan array binding signal (z-score),[5],-0.605
same,glycan array binding signal (z-score),[6],-0.573
same,glycan array binding signal (z-score),[7],-0.698
same,glycan array binding signal (z-score),[8],4.19
same,glycan array binding signal (z-score),[9],-0.489
same,glycan array binding signal (z-score),[10],0.032
same,glycan array binding signal (z-score),[11],0.182
same,glycan array binding signal (z-score),[12],-0.664
same,glycan array binding signal (z-score),[13],1.05
same,glycan array binding signal (z-score),[14],-0.67
same,glycan array binding signal (z-score),[15],0.016
same,glycan array binding signal (z-score),[16],-0.434
same,glycan array binding signal (z-score),[17],-0.442
same,glycan array binding signal (z-score),[18],0.138
same,glycan array binding signal (z-score),[19],-0.26
same,glycan array binding signal (z-score),[20],-0.239
same,glycan array binding signal (z-score),[21],-0.126
same,glycan array binding signal (z-score),[22],0.041
same,glycan array binding signal (z-score),[23],0.648
same,glycan array binding signal (z-score),[24],0.316
same,glycan array binding signal (z-score),[25],0.488
same,glycan array binding signal (z-score),[26],-0.244
same,glycan array binding signal (z-score),[27],-0.474
same,glycan array binding signal (z-score),[28],-0.538
same,glycan array binding signal (z-score),[29],0.289
same,glycan array binding signal (z-score),[30],-0.604
same,glycan array binding signal (z-score),[31],0.551
same,glycan array binding signal (z-score),[32],-0.289
same,glycan array binding signal (z-score),[33],-0.286
same,glycan array binding signal (z-score),[34],-0.399
same,glycan array binding signal (z-score),Gal(b1-4)GlcNAc6P,-0.644
same,glycan array binding signal (z-score),Gal(b1-6)Gal,-0.739
same,glycan array binding signal (z-score),Gal3S(b1-3)GalNAc,0.272
same,glycan array binding signal (z-score),Gal3S(b1-3)GlcNAc,-0.202

# From the supplement of paper PMC8728848
